Reference: PubChem BioAssay AID504832 (National Center for Advancing Translational Sciences (NCATS), 2011)
Out of some 310,000 compounds screened, about 18,000 (5.8%) were called active. This list was built around the results that the source calls inconclusive (neither active nor inactive); the mix of calls is not that of the screen. The call rests on the fitted dose curve; in most records, active means well fitted inhibition curve with a large enough effect; inconclusive means small, poorly fitted or top-dose-only effect, or another doubt; inactive means no such curve, though single readings can be large or run the other way. No potency is given beside an inconclusive call; the fits are too rough.

experiment: Primary qHTS for delayed death inhibitors of the malarial parasite plastid, 48 hour incubation; settings: P. falciparum luciferase growth in erythrocytes; series mostly up to 28.7 µM; activity change, negative = inhibition: at the top concentration
Summary of the method: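 In quantitative HTS format, infected erythrocytes bearing luciferase-reporter parasites were treated for a single generation at 37 C. Luminescence after adding detection reagent served as the growth measure.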
On the % scale 0 is the no-effect control and ±100 the full control effect; potency means the concentration at half of the fitted maximal effect; tags describe the fitted curve by direction and shape.

Q: For `COc1ccccc1NS(=O)(=O)c1ccc(N/N=C/C=C/c2ccccc2[N+](=O)[O-])c([N+](=O)[O-])c1`, which Potency is on record?
A: inconclusive [inhibitor, partial curve, poor fit]

Q: With `Cc1cccc(N2CCN(S(=O)(=O)c3ccc4c(c3)C(C)(C)C(=O)N4C)CC2)c1C` as the compound, how does the Potency read?
A: inconclusive [inhibitor, single point]

Q: For `CN(CC(=O)Nc1cccc2ccccc12)c1ccc(S(=O)(=O)N2CCOCC2)cn1`, which “activity change, negative = inhibition” value is on record?
A: inactive: -24.3%

Q: With `O=C(CCC1CCCN(C(=O)c2ccccc2Cl)C1)N1CCN(c2ccccn2)CC1` (stereo not given) as the compound, how does the Potency read?
A: inconclusive [inhibitor, single point]

Q: Which Potency does the source give for `Cc1ccc(NC(=O)Cn2c(=O)n(Cc3ccco3)c(=N)c3c4c(sc32)COC(C)(C)C4)cc1` here?
A: inconclusive [inhibitor, partial curve, poor fit]

Q: With `CCC1CCCCN1CCCNC(=O)c1cn(CC)c2ccc(S(=O)(=O)N(C)C3CCCCC3)cc2c1=O` (stereo not given) as the compound, how does the Potency read?
A: inconclusive [inhibitor, partial curve]

Q: For `Fc1cccc(NC(=S)NCc2ccccn2)c1`, which “activity change, negative = inhibition” value is on record?
A: inactive: 124%

Q: For `Clc1ccc(Nc2ncnc3c2nnn3Cc2ccccc2)cc1`, which “activity change, negative = inhibition” value is on record?
A: inactive: -9.13%

Q: Which Potency does the source give for `CCCN(CC(=O)Nc1ccccc1C)C(=O)C1CCN(S(=O)(=O)c2ccccc2C(F)(F)F)CC1` here?
A: active: 9.28 µM

Q: For `C1=C(c2c[nH]c3ccccc23)CCNC1`, which Potency is on record?
A: active: 9.28 µM

Q: With `S=c1[nH]nc(CSCc2ccccc2Cl)n1-c1ccccc1` as the compound, how does the Potency read?
A: inconclusive [inhibitor, full curve, poor fit]

Q: With `Cc1ccc(OC(C)C(=O)Nc2ccc(C)c(S(=O)(=O)Nc3ccc(C)cc3C)c2)cc1` (stereo not given) as the compound, how does the “activity change, negative = inhibition” value read?
A: inactive: -20.4%

Q: Which Potency does the source give for `O=C(Nc1ccccc1)c1ccccc1CCc1ccccc1` here?
A: inconclusive [inhibitor, single point]

Q: Which “activity change, negative = inhibition” value does the source give for `COc1ccc(N2CC(O)=C(c3nc(-c4ccc(Br)cc4)cs3)C2=N)cc1` here?
A: inactive: -7.76%

Q: With `COc1ccc2[nH]c(C(=O)N3CCc4ccccc4C3)c(C)c2c1` as the compound, how does the Potency read?
A: inconclusive [inhibitor, partial curve, poor fit]

Q: With `Cn1c(-c2csc(-c3cccc(C(F)(F)F)c3)n2)n[nH]c1=S` as the compound, how does the Potency read?
A: inconclusive [inhibitor, partial curve, poor fit]

Q: Which Potency does the source give for `CCOc1ccc(Nc2c3ccccc3nc3ccccc23)cc1` here?
A: active: 2.94 µM

Q: With `O=c1c([N+](=O)[O-])c(NCCN2CCCCCC2)c2ccccc2n1-c1ccccc1` as the compound, how does the Potency read?
A: inconclusive [inhibitor, single point]

Q: With `CCn1c(COc2cccc(C)c2)nc2ccccc21` as the compound, how does the Potency read?
A: inconclusive [inhibitor, partial curve]

Q: Which Potency does the source give for `Cc1ccc(-c2nc(CN(C)C)cc(CN(C)C)c2O)cc1` here?
A: active: 6.57 µM

Q: With `CN(C)C(=O)c1ccc(NC(=O)COc2ccc([N+](=O)[O-])cc2)cc1` as the compound, how does the “activity change, negative = inhibition” value read?
A: inactive: -5.4%

Q: Which Potency does the source give for `COc1ccc(NC(=O)c2oc3ccccc3c2NC(=O)c2ccco2)cc1` here?
A: inconclusive [inhibitor, single point]

Q: For `O=C(NCCc1ccc(Cl)cc1)c1ccc(CNc2c(N3CCOCC3)c(=O)c2=O)cc1`, which “activity change, negative = inhibition” value is on record?
A: inactive: -15.1%

Q: With `CCCCN(C)S(=O)(=O)c1ccc(C(=O)N(CCN(C)C)c2nc3ccc(C)cc3s2)cc1` as the compound, how does the “activity change, negative = inhibition” value read?
A: inactive: 10.8%

Q: Which Potency does the source give for `C[C@H](NC(=O)c1nc[nH]c1C(=O)N[C@@H](Cc1ccccc1)C(=O)OCc1ccccc1)C(=O)OCc1ccccc1` here?
A: inconclusive [inhibitor, partial curve, poor fit]

Q: With `CCOc1ncccc1C(=O)OCC(=O)NC(=O)c1ccccc1` as the compound, how does the “activity change, negative = inhibition” value read?
A: inactive: 9.51%

Q: For `CCN(C(=O)CCS(=O)(=O)c1ccc2c(c1)oc(=O)n2C)c1ccc(OC)cc1`, which “activity change, negative = inhibition” value is on record?
A: inactive: -28.9%

Q: For `COc1ccc(CN2CCNC(=O)C2CC(=O)NCCC2=CCCCC2)c(F)c1` (stereo not given), which “activity change, negative = inhibition” value is on record?
A: inactive: 2.52%

Q: For `C/C(=C\c1ccc(N)cc1)c1nc2ccccc2[nH]1`, which “activity change, negative = inhibition” value is on record?
A: inactive: 8.54%

Q: With `CCOc1ncccc1C(=O)Nc1ccc(S(=O)(=O)Nc2nccs2)cc1` as the compound, how does the Potency read?
A: inconclusive [inhibitor, partial curve, poor fit]

Q: Which “activity change, negative = inhibition” value does the source give for `COc1ccc(CNC(=O)CSc2nc3ccccc3n2C(C)=O)cc1` here?
A: inactive: 25.1%

Q: For `CN(C)S(=O)(=O)c1ccc(C(=O)NCc2ccccc2)cc1`, which “activity change, negative = inhibition” value is on record?
A: inactive: 36.2%

Q: Which Potency does the source give for `Cc1ccc(C2N(c3ccc(Cl)cc3)C(=O)N3CCCN23)cc1` (stereo not given) here?
A: inconclusive [inhibitor, single point]

Q: For `CCOc1cc(C#N)c(NC(=O)c2cccnc2Cl)cc1OCC`, which Potency is on record?
A: inconclusive [inhibitor, partial curve, poor fit]

Q: For `COc1ccc(N(CC(=O)Nc2nccs2)S(=O)(=O)c2c(C)[nH]c(=O)[nH]c2=O)cc1`, which Potency is on record?
A: inconclusive [inhibitor, single point]

Q: With `CC(C)CCNC(=O)C1CCC(CNc2c(N3CCC(C)CC3)c(=O)c2=O)CC1` (stereo not given) as the compound, how does the Potency read?
A: inconclusive [inhibitor, partial curve]

Q: With `CN(C(=O)c1ccc(NC(=O)Cc2ccc(NC(=O)C3CCN(C(=O)C4CCCC4)CC3)cc2)cc1)C1CC1` as the compound, how does the Potency read?
A: inconclusive [inhibitor, partial curve]

Q: With `COc1ccc(C(CNC(=O)CCC(=O)c2ccc(C)s2)N2CCOCC2)cc1` (stereo not given) as the compound, how does the Potency read?
A: inconclusive [inhibitor, single point]

Q: Which Potency does the source give for `Cc1csc(SCC(=O)N(C)C2CCS(=O)(=O)C2)n1` (stereo not given) here?
A: inconclusive [inhibitor, single point]

Q: With `CCN(CC(=O)NCc1cccs1)C(=O)/C=C/c1ccc(C)cc1` as the compound, how does the Potency read?
A: inconclusive [inhibitor, partial curve, poor fit]

Q: Which “activity change, negative = inhibition” value does the source give for `CC(C)c1ccc(N(CC(=O)N2CCN(Cc3ccccc3)CC2)S(C)(=O)=O)cc1` here?
A: inactive: 3.09%

Q: With `Cc1ccc(S(=O)(=O)NN)c(C)c1N1CCCC1=O` as the compound, how does the “activity change, negative = inhibition” value read?
A: inactive: 20.2%

Q: For `CC[C@H](C)[C@@H](C(=O)NCCCCCCCCCCC(=O)N1CCN(C(=O)OC(C)(C)C)CC1)n1cc(CCCCN=C(NC(=O)OC(C)(C)C)NC(=O)OC(C)(C)C)nn1`, which Potency is on record?
A: active: 1.17 µM

Q: Which “activity change, negative = inhibition” value does the source give for `Cc1cc(C(=O)N2CCC(Cc3ccccc3)CC2)no1` here?
A: inactive: 79.6%

Q: For `CNc1nc2ccccc2n1/N=C/c1cccc(OC)c1OC`, which Potency is on record?
A: inconclusive [inhibitor, single point]
